Changes are numbered by the printed parent chain.
B1: DOMAIN_22297 (protein, listed as Sarcophilus harrisii)
chain: HQDLVTFKDVAVDFTPEEWGQLVPSQKELYRDVMLENYQNLVWLGLAVSKPDVIYQLEQVGGTWVPEGETLTVSCSDFVTR
B2: DOMAIN_22471 (protein, listed as Papio anubis)
chain: SQESVAFEDVAVYFTTKEWAIMVPAERALYRDVMLENYEAVAFVVPPTSKPALVSHLEQGKESCFIRPQVVLSRSDWRAGL
B3: DOMAIN_22322 (protein, listed as Tursiops truncatus)
chain: QPQEAVTFKDVEVTFSQDEWGWLDASQRNLYRDVMLENYGNVTSLVGPFTKPALISWLEAREPWGLNVQGAHPKRSPSAAP
B4: DOMAIN_21988 (protein, listed as Sarcophilus harrisii)
chain: VPALVTFRDVAVDFTQEEWRHLEPAQRALHRDVMLENFQNLVSVGLPVSKVDVISLLERGEAPWQPEGGGPPDPCYDYLNW
B5: DOMAIN_22151 (protein, listed as Trichechus manatus)
chain: QAAVTFEDVAVLLSREEWCRLAPAQRDLYRDVMLETYRNLISLGTGLTGPKPGVISQLERGHEPWVLDVQSTKGRVDGSDC
B6: DOMAIN_22425 (protein, listed as Aotus trivirgatus)
chain: SQEPVTFADVAVVFTPEEWVFLDSTQRSLYRDVMLENYRNLASVAGDQLCKPNALSYLEQRGEQWTTERGVISDTCPEPQL
B7: DOMAIN_21900 (protein, listed as Equus caballus)
chain: SQGLVTFEDVAVYFSLEEWERLDAAQRDLYKEVMQENYGILVSLGYPIPKPDLIFRLEQGEEPWVPDSPRPEEGDIVTGVY
B8: DOMAIN_22022 (protein, listed as Tursiops truncatus)
chain: AHGSVMFSDVSIDFSQEEWDYLDLEQRDLYRDVMLENYSNLVSLGCFVSKPDVIFLLEQGKEPWKVVRKGRRRYPDLETNY
B9: DOMAIN_22462 (protein, listed as Monodelphis domestica)
chain: SQKALTFQDVAVEFTQEEWGLLEPAQKNMHRDVMLENYENFVSLGLPVPKSALIFHLERRETPWLPSGEVLRNTYPDYLVQ
B10: DOMAIN_22285 (protein, listed as Trichechus manatus)
chain: KTQVSLEFNDVAVEFAWEEWQLLDPAQKDLYREVMLENFHNLVSVGCQVGKPDVLFRLEREPPWSLEDEIHSQNFSEIQEV
B11: DOMAIN_21896 (protein)
chain: TQGLVTFRDVAIEFSQEEWKCLEPAQKDLYKDVTLENFSNLVSLGLSLPKPDVISLLEQGKEPWMVINDMTGPWCPDLESR
modifications: Lipotes vexillifer
B12: DOMAIN_22512 (protein, listed as Aotus trivirgatus)
chain: SKGSLMFRDVSIDFSQEEWECLDSGQMNLYKEVMLENFSNLVSVGLSSSKPAVISLLEQGREPWMVDRELTRGLCSDLESM
B13: DOMAIN_22479 (protein, listed as Aotus trivirgatus)
chain: RPRALKFVDVAVYFSSEEWGCLRPAQRALYRDVMRETYGHLGALGFPGPKPALISWMEQESEAWSSAAQDPEKGENLGGAR
B14: DOMAIN_22220 (protein, listed as Pan paniscus)
chain: MMTFRDVAIDFSQEEWKWLQPAQRDLYRCVMLENYGHLVSLGLSISKPDVVSLLEQGKEPWLGKKGISESSGEIKDFSPKN
B15: DOMAIN_22518 (protein)
chain: KEAFMAFGDVAVDFTQEEWRLLSPAQRTLHREVMLETYNHLVSLEIPFSKPKLISQLERGEEPWIKERQRPLSLCPAGSKL
modifications: Lipotes vexillifer
B16: DOMAIN_22566 (protein, listed as Papio anubis)
chain: VQEPVTFKDVAVDFTQEEWGQLDLVQRTLYRDVMLETYGHLLSVGNQIAKPEVISLLEQGEEPWSVEQACPQRACPEWMRN
B17: DOMAIN_22117 (protein, listed as Sarcophilus harrisii)
chain: FHQLVTFEDVAVYLSKEEWKRLNLAQRELYRDVMLENYENLLSLGFPVSKPDIISQLEQRKEAWIVQGPEKRKFSQNAHRD
B18: DOMAIN_22166 (protein, listed as Trichechus manatus)
chain: FQESVTFEDVAVYFTQSQWASLGPLQRALYREVMLENYANVASLAFPFPKPVLISQLEREEAPLGPDPWETEVLRDICPGG
B19: DOMAIN_22268 (protein)
chain: ELVTFRDVVISFSQEEWEYLDSAQRDLYWDVMMENYSNLVSLDLESKYDKKTLSTEKDIIEKNDSQWEVIESSKLVGLANS
modifications: Lipotes vexillifer
B20: DOMAIN_22079 (protein, listed as Trichechus manatus)
chain: PQGSVTFEDVAVDFSQEEWELLDPAQRTLYREVMLETCRNLVSLGCSLCQPVAPPHLEQGEAVWMVDRGIPQAFCSDWETR
B21: DOMAIN_22280 (protein, listed as Pteropus vampyrus)
chain: SQSLVTFGDVAVDFSQEEWERLSSDQRDLYRRVMLENYRNLVSLGLCFSKPDIISSLEQRKELWMAKREVTRGQCPDWKAV
B22: DOMAIN_21951 (protein, listed as Equus caballus)
chain: PHRLVLFRDVAVDFSQEEWACLDSEQKDLYRDVMLENYSNLVSLGFSSSKADMLSLLEQGKEPWKVVQDVARSQSSDLGSR
B23: DOMAIN_22520 (protein, listed as Callorhinus ursinus)
chain: SQEPVTFEDVAVYFTQNQWASLDPMQRALYLEVMLENYANITSLAALPFPKPDLILQLEQGEAPWGLDPWTPLDGEALGGV
B24: DOMAIN_22158 (protein)
chain: LQVSVSFEDVAVDFSREEWQQLDSTQRRLYQDVMLENYSHLLSLGCEIPKPEVIFKLEQGEEPWTLEEETPHQSCSDEKFG
modifications: Lipotes vexillifer
B25: DOMAIN_22192 (protein, listed as Trichechus manatus)
chain: TQVSLTFDDVAVKLTWEEWQLLDPAQKDLYRDVMLENYSNLVSVGYQVSKPDALSRLERGEPPWSIEDKIHTRTFSGERPY
B26: DOMAIN_21985 (protein, listed as Suricata suricatta)
chain: PQKSVTFEDVAVYFTQTEWDGLSPAQRALYRDVMLENYGNVASLGFSLLKPAVILQLEGAGELGDPSLLVAGTEVGSQGVW
B27: DOMAIN_22383 (protein, listed as Pteropus vampyrus)
chain: TQESVTFRDVAVHFSRDEWLYLDPAQRALYREVMLENYSSLVSLGILFSKPKVIFQLQQGEDPWMVENGVSCGACLGWESL
B28: DOMAIN_22366 (protein, listed as Aotus trivirgatus)
chain: AIRSVMFSDISIDFSPEEWEYLDLEQKDLYRDVMLENYSNLVSLGCFISKPDVISLLEQGKEPWKVVRKRRRQYPEMLLLL
B29: DOMAIN_21993 (protein)
chain: MAFKDVAVAFTQKEWKLLSPAQRTLYRDVMLENYSHMVSLGIAFPKPKLIIQLEQGDEPWREESESLLDLCPEPRTEFQPH
modifications: Lipotes vexillifer
B30: DOMAIN_22407 (protein, listed as Aotus trivirgatus)
chain: EPGAVTFGDVAVYFSREEWGCLRPAQRALYRDVTRETYSHLGALGVGGSKPALISWMEEEAELWGPAAQDPEVAKCPTEAD
B31: DOMAIN_22143 (protein, listed as Pteropus vampyrus)
chain: LLTFEDVAISFSEEEWKLMDPAQKMLYSDVMQENYETVISLGLKLKKDTGNDQPISTSTLEIQASGCKVLRKARMKVAQKT
B32: DOMAIN_22430 (protein, listed as Callorhinus ursinus)
chain: FQGSVTFRDVAIDFSQEEWEWLQPAQRDLYRHVMLENYGHLVSLAGFNISKPYVVSLLEQGREPWLVKGDVRRDPFSESNG
B33: DOMAIN_419 (protein, listed as Pan paniscus)
chain: MIEYQIPVSFKDVVVGFTQEEWHQLSPAQRALYRDVMLETYSNLVSVGYEGTKPDVILRLEQEEAPWIGEAACPGCHCWGI
B34: DOMAIN_421 (protein, listed as Pan paniscus)
chain: B33 chain with I81K
B35: DOMAIN_451 (protein, listed as Pan paniscus)
chain: MVHGSVTFRDVAIDFSQEEWECLQPDQRTLYRDVMLENYSHLISLGSSISKPDVITLLEQEKEPWMVVRKETSRRYPDLES

Tested on: HBEGF locus
Assay type: cell-based, human
Conditions: high-throughput screen of dXR repression of the HBEGF gene; abundance of each domain in the library before vs after diphtheria toxin selection; listed domains met p-value <0.01 and log2(fold change) >2

Row | Molecule | Log2 (fold change)
1 | B1 | 2.4261
2 | B2 | 3.6293
3 | B3 | 3.4452
4 | B4 | 3.3393
5 | B5 | 3.1615
6 | B6 | 3.0333
7 | B7 | 2.7606
8 | B8 | 3.9558
9 | B9 | 3.5597
10 | B10 | 3.0261
11 | B11 | 2.8718
12 | B12 | 2.93
13 | B13 | 3.9668
14 | B14 | 2.8922
15 | B15 | 2.8869
16 | B16 | 3.5278

Row | Molecule | Log2 (fold change)
17 | B17 | 2.5969
18 | B18 | 4.2024
19 | B19 | 2.6534
20 | B20 | 3.4511
21 | B21 | 3.1521
22 | B22 | 2.8972
23 | B23 | 3.3586
24 | B24 | 2.0562
25 | B25 | 2.8134
26 | B26 | 3.6273
27 | B27 | 3.4752
28 | B28 | 4.848
29 | B29 | 2.5494
30 | B30 | 2.5308
31 | B31 | 2.6595
32 | B32 | 2.982

Same assay, conditions: high-throughput screen of dXR repression of the HBEGF gene; change in abundance of each domain in the library before and after diphtheria toxin selection

Row | Molecule | Log2 (fold change)
33 | B33 | 3.5913
34 | B34 | 3.2969
35 | B35 | 3.0774

Source: patent US12551573B2, “Compositions and methods for the targeting of PCSK9” (Scribe Therapeutics Inc., priority 2022, dated 2026)
